# Results as given in PubChem BioAssay AID686978 (National Center for Advancing Translational Sciences (NCATS), 2013).
# About 64,000 (15%) of roughly 420,000 compounds were called active. The shares of active, inactive and inconclusive entries below differ from those in the screen. Calls follow the shape of the dose curve; as a rule, active = well fitted inhibition curve with a large enough effect; inconclusive = small, poorly fitted or top-dose-only effect; inactive = flat fitted curve, though single readings scatter. No potency is given beside an inconclusive call; the fits are too rough.
# Assay: qHTS for Inhibitors of human tyrosyl-DNA phosphodiesterase 1 (TDP1): qHTS in cells in absence of CPT; also: nearly all actives have a fitted effect of over 55% in size
# Conditions: DT40 Tdp1-/- hTDP1 cells, no CPT, ATP luminescence, 48 h; activity change, negative = growth inhibition: at 46.2 µM (top of the series) unless noted
# Outline: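 No-CPT arm: Tdp1-/-;hTDP1 DT40 cells (400/well) plus compounds, incubated ≥48 hr at 37 °C. Readout CellTiter-Glo luminescence.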
# % is scaled to controls: 0 for no effect and ±100 for the full control effect; potency is read from the fitted curve at half-maximal effect; tags tell the direction and shape of the fitted curve.
SMILES,"activity change, negative = growth inhibition",Potency
Cc1ccc(-c2noc(-c3c(C)noc3C)n2)cc1,inactive: -0.623%,
COc1cc(C2C(=O)N(C3CCCCCC3)CC(=O)N2CCC2=CCCCC2)ccc1OC(C)C (centres undefined),,active: 20.6 µM
Cn1c(=O)c(C(=O)Nc2ncccn2)c(O)c2ccccc21,,"inconclusive [inhibitor, single point]"
CN(C)/C=C/c1oc2ccc(O)cc2c1[N+](=O)[O-],,"inconclusive [inhibitor, single point]"
O=C(NCC(=O)N1CCN(C(c2ccccc2)c2ccccc2)CC1)c1ccccc1Br,,active: 20.6 µM
CCCCN1Cc2ccccc2Oc2cc(Br)ccc2S1(=O)=O,,"inconclusive [inhibitor, single point]"
COc1cccc(N2CC(O)Cn3c2nc2c3c(=O)[nH]c(=O)n2C)c1 (centres undefined),inactive: -2.07%,
Cc1ccsc1/C=N\NC(=O)c1ccc2c(c1)OCO2,,"inconclusive [inhibitor, partial curve, poor fit]"
N#Cc1ccccc1NC(=S)NC(=O)c1cccs1,,"inconclusive [inhibitor, partial curve]"
CC(OC(=O)C1=COCCO1)C(=O)Nc1ccc(Oc2ccccc2)cc1 (centres undefined),,"inconclusive [inhibitor, single point]"
CCOc1ccc(N(CC)S(=O)(=O)N2CCCC(C(=O)Nc3ccc(OC)c(OC)c3)C2)cc1 (centres undefined),,"inconclusive [inhibitor, single point]"
Cc1ccc(C)c(S(=O)(=O)/N=C(/Nc2ccccc2)c2ccccc2)c1,,"inconclusive [inhibitor, single point]"
COc1cccc(CN(CCC(=O)O)Cc2cccc(OC)c2)c1,inconclusive: -31.8% [inhibitor],
COc1cccc2[nH]c3c(=O)n(CCN(C)C)cnc3c12,inactive: 7.15%,
O=C1C=CC(=O)c2c(O)c(N3CCN(CCO)CC3)c(Cl)c(O)c21,,active: 0.58 µM
O=C(Cc1ccccc1)Nc1scc(-c2ccccc2)c1C(=O)N1CCOCC1,,"inconclusive [inhibitor, single point]"
O=C(NNC(=O)C1CCN(C(=O)Nc2ccccc2)CC1)c1ccc([N+](=O)[O-])cc1,inactive: -10.3%,
CCOC(=O)c1c(C)[nH]c(C(=O)COC(=O)c2ccc([N+](=O)[O-])o2)c1C,,active: 25.9 µM
O=C(C[n+]1ccc(C(=O)c2ccccc2)cc1)Nc1cccc([N+](=O)[O-])c1,,active: 16.4 µM
COCc1cccc(-c2csc(C(O)c3ccc(OC)cc3)n2)c1 (centres undefined),inconclusive: -30.7% [inhibitor],
Cc1cccn2c(=O)c3cc(C(=O)NC4CCCCC4)c(=N)n(CCN4CCOCC4)c3nc12,,"inconclusive [inhibitor, single point]"
O=C(Nc1nc(-c2cccc3ccccc23)cs1)c1cnccn1,,"inconclusive [inhibitor, partial curve]"
COc1ccccc1N(CC(=O)N1CCCC1)S(=O)(=O)c1ccc(C)cc1,inactive: -23.3%,

SMILES,"activity change, negative = growth inhibition",Potency
COc1cc(/C=N/NC(=O)c2cncc(Br)c2)cc([N+](=O)[O-])c1O,,"inconclusive [inhibitor, single point]"
CC1CCN(CCc2nc3cc(NC(=O)COc4ccc([N+](=O)[O-])cc4)ccc3n2C)CC1,,"inconclusive [inhibitor, single point]"
COc1ccc2oc3c(ccc[n+]3C)c(=O)c2c1,inactive: -0.117%,
COc1cccc(Cn2c(=S)[nH]c3ccc(N4CCOCC4)cc3c2=O)c1,inactive: -10.3%,
OC(CNCCCN1CCCCC1)COc1ccccc1 (centres undefined),,"inconclusive [inhibitor, single point]"
COc1cc(NC(=O)NCc2ccco2)ccc1-c1ccc(NC(=O)NCc2ccco2)cc1OC,,"inconclusive [inhibitor, single point]"
COc1ccc(F)cc1S(=O)(=O)NCCc1c(C)[nH]c2c(Cl)cccc12,,"inconclusive [inhibitor, single point]"
COc1ccc(OC)c(CCNC(=O)c2ccc3c(c2)N(Cc2ccc(C)cc2)CCS3)c1,,active: 23.1 µM
CCC(C)NC(=O)CSc1nc2ccccc2c(=O)n1Cc1ccc(OC)cc1 (centres undefined),,"inconclusive [inhibitor, single point]"
CCc1cccc(OCC(=O)Nc2ccc(S(=O)(=O)Nc3cc(C)nc(C)n3)cc2)c1,inactive: -27.4%,
O=C(COC(=O)CCc1nc2ccccc2n1-c1ccccc1)Nc1cccc(Cl)c1,,"inconclusive [inhibitor, partial curve]"
O=c1c2ccccc2nc(-c2ccco2)n1/N=C/c1ccco1,,"inconclusive [inhibitor, full curve, poor fit]"
CC(C)(C)OC(=O)NCCCCCNC(=O)c1[nH]cnc1C(=O)N[C@@H](Cc1ccccc1)C(=O)OCc1ccccc1,,"inconclusive [inhibitor, single point]"
Cc1ccc(NC(=O)c2ccc(-c3nn(C)c(=O)c4ccccc34)cc2)cc1,,"inconclusive [inhibitor, single point]"
Cc1cccc(NS(=O)(=O)c2cc3c4c(c2)CCC(=O)N4CCC3)c1,,"inconclusive [inhibitor, partial curve]"
CCN(CC(=O)NCc1cccs1)S(=O)(=O)c1ccc(C(C)C)cc1,,"inconclusive [inhibitor, single point]"
COc1ccc(Nc2cc(C(=O)NCCc3ccc(C)cc3)c3ccccc3n2)c(OC)c1,,"inconclusive [inhibitor, single point]"
Cn1nc(N)c2ncc(-c3ccc(Cl)cc3)nc21,inactive: -4.31%,
Cc1ccc(C(C(=O)NCc2ccco2)N(C(=O)Cn2nnc3ccccc32)c2ccccc2)o1 (centres undefined),,"inconclusive [inhibitor, single point]"
Cc1nnc(NCc2cccc(Cl)c2)c2ccccc12,,"inconclusive [inhibitor, single point]"
O=C(NCc1ccccc1F)C1CCC(=O)N(Cc2ccc(Cl)cc2)C1 (centres undefined),,"inconclusive [inhibitor, single point]"
CC(=O)O[C@@H]1[C@H]2[C@@H](C[C@@H](C)[C@@H]3C=CC(=O)[C@@]13C)OC(=O)[C@@H]2C,,"inconclusive [inhibitor, single point]"
CC(=O)N1CCN(c2ccc(NC(=O)c3ccc(Br)o3)cc2Cl)CC1,,active: 25.9 µM

SMILES,"activity change, negative = growth inhibition",Potency
CCC(C(=O)Nc1nc(C)c(C(=O)OC)s1)c1ccccc1 (centres undefined),inactive: 20.5%,
Cc1c(NC(=O)c2ccc(S(=O)(=O)N(C)C)cc2)cccc1-n1cnnn1,,"inconclusive [inhibitor, partial curve, poor fit]"
CCN(CC(=O)NCc1cccs1)C(=O)c1ccc(S(=O)(=O)Nc2ccccc2C)cc1,,"inconclusive [inhibitor, single point]"
O=c1[nH]n(CC2COC3(CCCCC3)O2)c(=O)c2ccccc12 (centres undefined),,"inconclusive [inhibitor, partial curve]"
S=C(S)OC1CC2CC1C1CCCC21 (centres undefined),,"inconclusive [inhibitor, single point]"
O=C(CCC1CCCN(C(=O)c2cncs2)C1)NCc1ccc(F)c(F)c1 (centres undefined),,"inconclusive [inhibitor, single point]"
Cc1ccc(-c2nnc(Nc3ccc(O)cc3)c3ccccc23)cc1S(=O)(=O)N1CCN(C)CC1,,active: 18.4 µM
Cc1ccc(C2=NS(=O)(=O)N(C)C(C(=O)Nc3cc(C)n(CC(=O)N4CCC(C)CC4)n3)=C2)cc1,,active: 20.6 µM
COc1cccc(C(=O)COc2cccc(NC(=O)c3ccco3)c2)c1,,"inconclusive [inhibitor, single point]"
Cc1cc(Cl)ccc1NC(=S)NCCc1ccc(S(N)(=O)=O)cc1,,"inconclusive [inhibitor, single point]"
O=C(N/N=C/c1ccc(-c2cccc([N+](=O)[O-])c2)o1)c1ccc([N+](=O)[O-])cc1,,active: 16.4 µM
Cn1c(=O)c2c(-c3ccccc3)n(-c3ccccc3N)cc2n(C)c1=O,,"inconclusive [inhibitor, full curve]"
COc1ccc(CC(=O)Nc2c(C(=O)N3CCN(c4ncccn4)CC3)oc3ccccc23)cc1,inactive: -19.5%,
COc1cccc(CN(C)S(=O)(=O)c2ccccc2Br)c1,inactive: -22.4%,
O=C(Nc1cccc(S(=O)(=O)N2CCOCC2)c1)c1ccc(Cl)nc1,,active: 23.1 µM
CCCCOc1ccc(C(=O)Nc2nnc3n2CCS3)cc1,,"inconclusive [inhibitor, single point]"
COc1ccc(CC(=O)NCc2nnc(SCCOc3ccccc3)n2C)cc1,,"inconclusive [inhibitor, partial curve, poor fit]"
Cn1nc(C(=O)Nc2nc3ccccc3[nH]2)c2ccccc2c1=O,,active: 16.4 µM
Cc1ccc(S(=O)(=O)NC(=O)C2(C)CCN2C(=O)C2CCCCC2)cc1 (centres undefined),inactive: -6.72%,
COc1ccc(-c2[nH]ncc2/C=N/NC(=O)c2cc(Br)ccc2O)c(OC)c1,,"inconclusive [inhibitor, single point]"
Cc1ccc(Cl)cc1N1CCN(C(=O)Cn2ccc3ccccc3c2=O)CC1,,active: 20.6 µM
CCCn1c2ccccc2c2cnn(CC(=O)NCCc3ccc(OCC)cc3)c(=O)c21,,active: 23.1 µM
Cc1nc2oc3c(NCc4ccccn4)ncnc3c2c2c1COC(C)(C)C2,,"inconclusive [inhibitor, partial curve]"
